Measured values published in the supplement of paper PMC6089552.
About 300 (9.4%) of roughly 3,200 compounds showed activity. The list shows a part of the results, in another mix than the full data.

System: A673/TR/shEF
Assay: cell viability (LOESS-normalised, relative to median of negative controls) (log2 ratio); higher = more viable cells (less compound effect), active = hit call of the paper (over 3 MAD below the median)
Settings: treatment time: 72 h
Summary of the method: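 Doxycycline, present or absent from 24 h before compounds, was used to induce EWS-FLI1 shRNA knockdown in A673/TR/shEF Ewing sarcoma cells at 1,500 per well in 384-well plates. Cells then received library compounds at two or more concentrations, or DMSO controls, for three days. Viability was measured by CellTiter-Glo luminescence on an Envision reader, and per-plate LOESS correction, division by the negative-control median and log2 transformation followed.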

[1] = 0.25 µM, library screen: screen1, EWS-FLI1 expression: high (no doxycycline)
[2] = 0.25 µM, library screen: screen1, EWS-FLI1 expression: low (doxycycline-induced shRNA knockdown)
[3] = 2.5 µM, library screen: screen1, EWS-FLI1 expression: high (no doxycycline)
[4] = 2.5 µM, library screen: screen1, EWS-FLI1 expression: low (doxycycline-induced shRNA knockdown)
[5] = 0.25 µM, library screen: screen2, EWS-FLI1 expression: high (no doxycycline)
[6] = 0.25 µM, library screen: screen2, EWS-FLI1 expression: low (doxycycline-induced shRNA knockdown)
[7] = 2.5 µM, library screen: screen2, EWS-FLI1 expression: high (no doxycycline)
[8] = 2.5 µM, library screen: screen2, EWS-FLI1 expression: low (doxycycline-induced shRNA knockdown)

Measured: cell viability (log2)

CCOC(=O)C1(O)Oc2cc(OC)cc(OC)c2C(=O)C1c1ccccc1 (configuration not stated)
inactive: [1] 0.122 | [2] 0.103 | [3] 0.112 | [4] 0.086

COc1c(O)cc2oc3cc(O)c(CC=C(C)C)c(O)c3c(=O)c2c1CC=C(C)C
inactive: [1] 0.0607 | [2] 0.115 | [3] 0.157 | [4] 0.0751

CC1(C)S[C@@H]2[C@H](NC(=O)Cc3ccccc3)C(=O)N2[C@H]1C(=O)O
inactive: [1] 0.0303 | [2] 0.0624 | [3] 0.183 | [4] 0.145

COC(=O)C[C@H]1C(C)(C)[C@@H](OC(C)=O)[C@@H]2CC3C4CC(=O)O[C@@H](c5ccoc5)[C@]4(C)CCC3[C@@]1(C)C2=O (some centres not stated)
inactive: [1] 0.0705 | [2] 0.0161 | [3] 0.14 | [4] 0.112

Cc1cccc(Nc2ccccc2C(=O)O)c1C
inactive: [1] 0.0456 | [2] 0.052 | [3] 0.174 | [4] 0.138

CC(N)C(=O)OC(C)(C)Cc1ccc(Cl)cc1 (configuration not stated)
inactive: [1] -0.0479 | [2] 0.0707 | [3] 0.168 | [4] 0.0562

CN(CCOc1ccc(C[C@H](Nc2ccccc2C(=O)c2ccccc2)C(=O)O)cc1)c1ccccn1
inactive: [5] 0.159 | [6] 0.0373 | [7] 0.15 | [8] 0.0503

CC[n+]1c(-c2ccccc2)c2cc(N)ccc2c2ccc(N)cc21
inactive: [1] 0.0617 | [2] 0.0391 | [4] -0.0126
active: [3] -1.89

CNCCCN1c2ccccc2CCc2ccccc21
inactive: [1] 0.0473 | [2] 0.0874 | [5] 0.114 | [6] 0.131 | [3] 0.0691 | [4] 0.257 | [7] 0.0822 | [8] 0.0438

COc1c(O)cc(C2Oc3c(c(O)cc(O)c3[C@H]3c4c(O)cc(O)cc4O[C@H](c4ccc(O)cc4)[C@@H]3O)C[C@H]2O)cc1O (some centres not stated)
inactive: 0.103 µM, library screen: screen3, EWS-FLI1 expression: high (no doxycycline) -0.000188 | 0.103 µM, library screen: screen3, EWS-FLI1 expression: low (doxycycline-induced shRNA knockdown) 0.0292 | 0.308 µM, library screen: screen3, EWS-FLI1 expression: high (no doxycycline) -0.0295 | 0.308 µM, library screen: screen3, EWS-FLI1 expression: low (doxycycline-induced shRNA knockdown) -0.00938 | 0.926 µM, library screen: screen3, EWS-FLI1 expression: high (no doxycycline) 0.0249 | 0.926 µM, library screen: screen3, EWS-FLI1 expression: low (doxycycline-induced shRNA knockdown) 0.0493 | 2.8 µM, library screen: screen3, EWS-FLI1 expression: high (no doxycycline) -0.0107 | 2.8 µM, library screen: screen3, EWS-FLI1 expression: low (doxycycline-induced shRNA knockdown) 0.0655 | 8.3 µM, library screen: screen3, EWS-FLI1 expression: high (no doxycycline) 0.0329 | 8.3 µM, library screen: screen3, EWS-FLI1 expression: low (doxycycline-induced shRNA knockdown) 0.11 | 25 µM, library screen: screen3, EWS-FLI1 expression: high (no doxycycline) 0.0402 | 25 µM, library screen: screen3, EWS-FLI1 expression: low (doxycycline-induced shRNA knockdown) 0.209

Cn1c(=O)c2c(ncn2CCO)n(C)c1=O
inactive: [1] 0.164 | [2] 0.117 | [3] 0.193 | [4] 0.0746

CC(C)NCC(O)c1cc(O)cc(O)c1 (configuration not stated)
inactive: [1] 0.00153 | [2] -0.0256 | [5] 0.11 | [6] 0.085 | [3] 0.146 | [4] 0.121 | [7] 0.186 | [8] 0.0726

CC(=O)/C(C)=N/O
inactive: [5] 0.106 | [6] 0.0636 | [7] 0.144 | [8] 0.0698

CCCn1cnc2c1c(=O)n(CCCCC(C)=O)c(=O)n2C
inactive: [5] 0.233 | [6] -0.0218 | [7] 0.137 | [8] 0.0484

CCCCCCCCCCCCCCSCC(=O)O
inactive: [5] 0.136 | [6] 0.0907 | [7] 0.015 | [8] 0.0283

Fc1ccc(C(c2ccccc2)(c2ccccc2F)n2ccnc2)cc1 (configuration not stated)
inactive: [1] -0.0531 | [2] -0.0527 | [3] 0.135 | [4] -0.00386

CC(C)(CO)Cc1cc(C(C)(C)C)c(O)c(C(C)(C)C)c1
inactive: [5] 0.202 | [6] 0.0314 | [7] 0.09 | [8] 0.0594

O=C(O)CN(CCN(CC(=O)O)CC(=O)O)CCN(CC(=O)O)CC(=O)O
inactive: [5] 0.195 | [6] 0.0606 | [7] 0.135 | [8] 0.0953

C#CCN(C)CCCOc1ccc(Cl)cc1Cl
inactive: [5] 0.27 | [6] 0.097 | [7] 0.132 | [8] 0.147

O=c1c2ccccc2nc2n1CCc1c-2[nH]c2ccccc12
inactive: [5] 0.189 | [6] 0.103 | [8] 0.0856
0.352: [7]

O=C(/C=C/C=C/c1ccc2c(c1)OCO2)N1CCCCC1
inactive: [1] 0.0376 | [2] 0.0395 | [3] 0.121 | [4] 0.0315

C=C(C)/C=C1/C=CC(=O)C(C)=C1
inactive: [1] 0.0888 | [2] 0.0664 | [3] 0.0231 | [4] 0.158

CCC(=O)OCC(=O)[C@@]1(OC(=O)CC)[C@@H](C)C[C@H]2[C@@H]3CCC4=CC(=O)C=C[C@]4(C)[C@@]3(Cl)[C@@H](O)C[C@@]21C
inactive: [1] 0.0748 | [2] 0.02 | [3] 0.143 | [4] -0.0583

Oc1cc2c(c(Cl)c1O)CCNCC2c1ccccc1 (configuration not stated)
inactive: [5] 0.218 | [6] 0.0817 | [7] 0.289 | [8] 0.0733
